Assay results reported in the supplement of paper PMC12632987.
Whole data set: some 4,500 sequences, median “median log2 fold change of GCK-ALFA target abundance (FLAG IP / Myc IP barcode read proportion)” near 0.078, cut for the lowest 2% near -0.6. The list shows a part of the results.

B1: GBRAP_52_6362 (protein)
chain: SLEKALELLRKAVEAELAGDEERAEAILREIVANFSEETILEAVKKLAEEIKTKTLEEAEAFLETAIRLADIMLEAGRDEAVADEIEAIAAKAYMEVLKK
B2: GBRAP_128_3385 (protein)
chain: VDPEVIERAKELAERLVKASLEEVPALTREIIEYLATLSPEEQEVLLEELEKAAKKMSLEKLEAFLDTLREERPKLDPETQAFVNELMVEIGEEILEKEE
B3: GBRAP_11_2873 (protein)
chain: DKEKLKKMLELAEELAKLLEELLKKGVDDEELRKKIEEKVEELSKLVKEHGDEAEKKLVEILKELVEKAKKDKENAEEYVKEALAAARVLAGQYLLKLEE
B4: GBRAP_184_5359 (protein)
chain: EVKVVEIEAETKEEALKKLKEAKEKIEKEKKETNVYVFLKNADLETVEAVAKELAEMKKEGLIKNAIIDVLDEKSEEEVDKMVEIADKYGIRLVVALEDE
B5: GBRAP_96_7092 (protein)
chain: ELEEVKELVRKLLEALDTDPEKAREYARELLKYPAELIAKALKELGVSPEEVVRIMRLLYEVDPSRIPDLAEALAEHLPSSVVVAVVEEAIRLEEARRAA
B6: GBRAP_125_2974 (protein)
chain: SREELLEDLATVAARLGFSEDDVAEAVRLAGEHSIKGTLYAIMAALGYDDIADLVEKITEEEAKEVLKRVAAYIKAHPDLTPEETAALLKEELKKAIAKK
B7: GBRAP_52_5903 (protein)
chain: MRERLRALVEEMLALVKAGDEEGARALARELAETLDDEELRELIEEVARLVREAPLEDLPYWERLAEIMAEALEEAGKDEALADLLLSRTAAAIYERLQR
B8: GBRAP_80_6802 (protein)
chain: AEEELKKYLAEIEKLDPELAKKVKKIIEEAKEMGVPLEDLAEFAKAVAELLKKDKELAKEMVEELEEELREEKEEGNSENARATVRVAAGEMLLAVEELE
B9: GBRAP_160_4623 (protein)
chain: SEKLKKAKELLEEEKEFVLSLVPELDTESFAHALETEFGSTILYLLEEGLISEETADKLMEVVDEAVDYLLAHPDLSPEERRALVEETLEKMKEILEEEY
B10: GBRAP_52_5847 (protein)
chain: SEERARRLAKELVELRLEGKEEELEKRIKELVETLSEEEVLKILKELAELAKEADEETAEAILEVAELLADKAEEAGFDEDELSYKLAEVAAAAYEKLQK
B11: GBRAP_125_3084 (protein)
chain: AVEEALEAAGLILRAAGFSDEEVEDFRRLSADSTVKAIFEALALLLLDEETALKATKLTEEEALAVLKRVAAEIEANPDLTPEQVRALLAEEVEKALAES
B12: GBRAP_80_6833 (protein)
chain: AEARLEAGIAEIEKIDPEIAKIVREIVAIARAMGVPLERLTRFVEAILELAKKDKEKARKLVTETLKEVKEAAARGDAAEVAAIIADAESDALLEVEELE
B13: GBRAP_83_6982 (protein)
chain: KEKITVVFPGDKIDEAPEIVEDLTKEEGYEVDVEIIADKADIPKVKAMVKEIAKLGIETNIDILLRGATPEEAAALKAELEAIAKAAGVNIKVNVEVEEE
B14: GBRAP_52_6202 (protein)
chain: MRERMRKLAEELVELMKAGKREEARALAKEIAETLSEEELKILAEEMARLAEEAKPEDFDTVFEAAEMFAEELLAAGWDEVLADDFLARVAAALYKRELA
B15: GBRAP_43_5740 (protein)
chain: MQEWVDGAADFTKLALEDESLTDEQKLKVIADLYRILADSGSKSAKLYEEAAKAIENADTVENLEKAIKLTKEIAEKDPKYADTFKKIAEYLEKLKEKRK
B16: GBRAP_11_2731 (protein)
chain: KKEKLKEIARLAEEAAELIAALIAEGPDNAELRARLGERLEELAKLVEEYGDEDLKKLVEIMREEWERALADPANAVAHLERALAAARVLAGQVLLDIEE
B17: GBRAP_184_5268 (protein)
chain: KVEEFEIEAKNEEEIKEKLKEIAEKVKDTKADLIIEVDIENPTEEKVKTLMNTLGEIKKAGYASSITVGINNEMSEEVIDLGYELADKYGIKLTVALSEE
B18: GBRAP_150_3927 (protein)
chain: SLETLKILTDTLLDYLEAILEGHDELVPHALKLAKAAEEEAEELPEKYRKPILEKLRKIIKLLEEILAGAPEEERKKLKKEALELARELEELVEELLEEE
B19: GBRAP_11_2853 (protein)
chain: KKEKLKEIAELAEEAIKLLEELLKKGVDDEELQKKILEKLKELLELVKKYLDEADVKLAEYALESFEKSLKDPENAEEYVNEALAFLRVLLGNVLLEIDE

These binders were tested against GABARAP, O95166 (assay: median log2 fold change of GCK-ALFA target abundance (FLAG IP / Myc IP barcode read proportion) (log2 ratio); each designed protein is fused to an ALFA-tag nanobody in HEK293 cells to bring the named protein to FLAG-tagged glucokinase (GCK); Myc marks an untargeted standard; higher = target protein stabilised (more abundant)). Conditions: target protein: 3xFLAG-MCP-GCK-ALFA reporter; HEK293 landing pad (RPLP).
Procedure, shortened: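 Sequencing of reverse-transcribed, amplified circular RNA barcodes from anti-FLAG and anti-Myc immunoprecipitates provided the readout for an ALFA-nanobody-fused binder library recombined into HEK293 landing-pad cells. Those cells were induced with 2 μg mL^−1 doxycycline, transfected with a plasmid expressing a FLAG-tagged target and a Myc-tagged standard, and lysed after 48 h. Target abundance is the per-binder median log2 ratio of FLAG to Myc barcode read proportions. Only barcodes at a proportion of ≥10^−7 in both replicates and binders with ≥3 barcodes per replicate were kept, with a 10^−6 pseudocount added before the two replicates were pooled.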

Sequence of GABARAP, O95166 (O95166 whole entry, the tested form may be a part): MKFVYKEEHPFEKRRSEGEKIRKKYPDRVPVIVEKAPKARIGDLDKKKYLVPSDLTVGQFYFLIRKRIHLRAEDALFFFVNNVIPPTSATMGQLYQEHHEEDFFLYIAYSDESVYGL

Binder | median log2 fold change
B1 | -0.176
B2 | 0.247
B3 | -0.054
B4 | 0.544
B5 | 0.0866
B6 | -0.0102
B7 | -0.0397
B8 | 0.0857
B9 | -0.16
B10 | -0.0891
B11 | 0.182
B12 | 0.286
B13 | 0.0394
B14 | 0.0579
B15 | 0.19
B16 | 0.22
B17 | 0.213
B18 | -0.0306
B19 | 0.174
